The campaign covered roughly 420,000 compounds. About 50,000 (12%) were called active. The shares of active, inactive and inconclusive entries below differ from those in the screen. The call rests on the fitted dose curve; in most records, active means well fitted inhibition curve with a large enough effect; inconclusive means small, poorly fitted or top-dose-only effect; inactive means flat fitted curve, though single readings scatter. No potency is given beside an inconclusive call; the fits are too rough.
experiment: qHTS for Inhibitors of human tyrosyl-DNA phosphodiesterase 1 (TDP1): qHTS in cells in presence of CPT; details: chicken DT40 Tdp1-/-;hTDP1 cells + 20 nM CPT, ATP luminescence, 48 h; activity change, negative = growth inhibition: at 46.2 µM (top of the series); further: nearly all actives have a fitted effect of over 55% in size
Summary of the method: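 Cell growth measured by CellTiter-Glo luminescence after a minimum 48 h, 37 C compound exposure with 20 nM CPT in Tdp1-knockout DT40 cells stably expressing hTDP1, seeded 400/well; qHTS titration format.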
On the % scale 0 is the no-effect control and ±100 the full control effect; potency means the concentration at half of the fitted maximal effect; tags describe the fitted curve by direction and shape.

SMILES | Potency | activity change, negative = growth inhibition
O=C(Nc1cc(Cl)ccc1O)c1cc2n(n1)C(C(F)(F)F)CC(c1ccc3c(c1)OCO3)N2 (stereo not drawn) | active: 23.1 µM | 
S=C(NCCC1=CCCCC1)NCc1ccco1 | active: 16.4 µM | 
COc1cccc(OC)c1C(=O)Nc1ccc2c(c1)n(C)c(=O)n2C |  | inactive: 15.1%
Nc1ccccc1NC1CCCCC1 |  | inactive: -20.4%
CCN(Cc1ccccc1)C(=O)CN1C(=O)COc2ccc(S(=O)(=O)N3CCCCCC3)cc21 | active: 20.6 µM | 
Cc1ccc(S(=O)(=O)NNC(=O)c2cnn(-c3ccccc3)c2C(F)(F)F)cc1 | inconclusive [inhibitor, single point] | 
CCCC(=O)Nc1nc(-c2ccc3c(c2)OCCO3)cs1 | inconclusive [inhibitor, single point] | 
CCOc1ccc(NC(=O)c2ccccc2SC)cc1 | inconclusive [inhibitor, single point] | 
O=C1c2ccccc2NC(c2cc(Br)c3c(c2)OCO3)N1Cc1ccco1 (stereo not drawn) | inconclusive [inhibitor, single point] | 
CC(C)CC1C(=O)N(Cc2cn(CCC3OCCCO3)nn2)CCS(=O)(=O)N1Cc1ccc(-c2cccc(N(C)C)c2)cc1 (stereo not drawn) |  | inactive: 11%
COc1ccc(OCCSc2nnc(-c3ccoc3C)n2C)cc1 | inconclusive [inhibitor, single point] | 
CCCS(=O)(=O)Nc1cc2c(cc1NCc1ccccc1)n(C)c(=O)n2C | active: 9.2 µM | 
O=c1cc(-c2ccccc2)nc2nc(SCc3ccccc3)[nH]n12 |  | inconclusive: -34.6% [inhibitor]
CCOc1ccc(NC(=O)CCS(=O)(=O)c2ccc3c(c2)n(C)c(=O)c(=O)n3C)cc1 |  | inactive: 16.3%
COc1ccc(C(=O)NC(C)Cn2nc(C)cc2C)cc1OC1CCN(C(C)=O)CC1 (stereo not drawn) |  | inactive: -1.86%
O=C(NC1CC1)c1ccc2c(c1)N(Cc1ccc(Cl)cc1)CCS2 | inconclusive [inhibitor, single point] | 
COCc1c(C(=O)N2CCC(N3CCCCC3)CC2)cnn1-c1ncc(C)c(-c2cccs2)n1 |  | inactive: 9.76% [at 9.04 µM]
C=CCCC1CN(CCCC)S(=O)(=O)c2c(F)cccc2O1 (stereo not drawn) | inconclusive [inhibitor, single point] | 
CC(=O)NC1=NN(C(C)=O)C(C)(c2cccs2)S1 (stereo not drawn) | inconclusive [inhibitor, full curve] | 
COc1ccc(C(=O)c2cc([N+](=O)[O-])ccc2N2CCOCC2)cc1 | active: 0.0259 µM | 
CC(=O)c1cccc(OC(=O)Oc2cccc(C(C)=O)c2)c1 | inconclusive [inhibitor, single point] | 
CCOC(=O)C1(Cc2cccc(OC)c2)CCCN(Cc2cc(OC)c(O)c(OC)c2)C1 (stereo not drawn) | inconclusive [inhibitor, single point] | 
COc1cc2c(NC3CCN(C)CC3)nc(N3CCCCC3)nc2cc1OCCOCCN1CCCC1 | active: 12.6 µM | 

SMILES | Potency | activity change, negative = growth inhibition
C/C(CC(C)C)=N/Nc1ccc([N+](=O)[O-])cc1[N+](=O)[O-] | inconclusive [inhibitor, single point] | 
COCc1ccc(CN2CCc3c([nH]c4ccccc34)C2C(C)(C)C)o1 (stereo not drawn) | inconclusive [inhibitor, single point] | 
CCOC(=O)c1ccc(COC(=O)CCc2nc(-c3ccccc3)c(-c3ccccc3)o2)cc1 |  | inactive: -16%
COc1ccc(C[C@@H]2CN3C(=NC[C@@H]3Cc3ccc(O)cc3)N2C[C@H](C)NC(=O)CCC2CCCCC2)cc1 | active: 5.8 µM | 
O=C1C(Cl)=C(N2CCCCC2)C(=O)N1c1ccccc1Cl | inconclusive [inhibitor, partial curve] | 
O=C(COc1ccccc1)N1CCN=C1SCc1ccccc1F | inconclusive [inhibitor, partial curve] | 
CCN(c1ccc(NC(=O)COC(=O)C2CCN(c3ccc(C(F)(F)F)cn3)CC2)cc1)C(C)C | inconclusive [inhibitor, single point] | 
CC1CN(C(=S)c2cccc([N+](=O)[O-])c2)CC(C)O1 (stereo not drawn) | inconclusive [inhibitor, partial curve] | 
COc1ccc(NC(=O)CC2Nc3ccccc3NC2=O)c([N+](=O)[O-])c1 (stereo not drawn) | inconclusive [inhibitor, single point] | 
O=C(O)CSc1nnc(-c2cccs2)n1-c1ccc(Cl)cc1 | inconclusive [inhibitor, single point] | 
Cc1cc(C)c2cc(CN(Cc3ccco3)C(=O)NCc3ccccc3)c(=O)[nH]c2c1 |  | inactive: 9.27%
Cc1ccc(-c2[nH]nc3c2C(c2ccoc2)C(C#N)=C(N)O3)cc1C (stereo not drawn) | inconclusive [inhibitor, single point] | 
O=C(CSc1nnc(-c2ccncc2)n1Cc1ccco1)N1c2ccccc2Sc2ccc(Cl)cc21 | active: 14.6 µM | 
CCCOc1cc(C)c(S(=O)(=O)NCc2cccs2)cc1C | inconclusive [inhibitor, single point] | 
C/C(=N\NC(=O)c1ccc([N+](=O)[O-])cc1)c1c(O)cc(C)oc1=O | inconclusive [inhibitor, single point] | 
O=S(=O)(c1ccccc1)C1(C2CC(c3ccccc3)=NO2)CC(O)C1 (stereo not drawn) | inconclusive [inhibitor, single point] | 
CS(=O)(=O)CCCCN=C=S | inconclusive [inhibitor, single point] | 
COc1ccc(Cc2c(C)nc(N)nc2Cl)cc1 | inconclusive [inhibitor, single point] | 
C[C@@H]1COC(=O)[C@H](CC(=O)OC(C)(C)C)C/C=C\C[C@H](CC(=O)N(CCO)Cc2ccccc2)C(=O)N1 |  | inactive: -15.1%
CCOc1ccc(Oc2ccc(C(F)(F)F)cc2N)cc1 | inconclusive [inhibitor, partial curve, poor fit] | 
O=C(N1CCC(n2nc(-c3ccccc3)oc2=O)CC1)C1(c2ccc(Cl)cc2)CC1 | inconclusive [inhibitor, single point] | 
CCCCN(CCCC)CCNC(=O)CSCc1ccc(C)cc1 | active: 25.9 µM | 
Cc1ccc(C)c(N2CCN(Cc3nnc(-c4ccccc4)o3)CC2)c1 |  | inactive: -20.2%

SMILES | Potency | activity change, negative = growth inhibition
COc1ccc(NC(=O)c2cc(-c3cc(Cl)ccc3C)n[nH]2)cc1OC | inconclusive [inhibitor, single point] | 
CCOC(=O)Cn1c(=O)oc2cc(S(=O)(=O)Nc3ccc(N(CC)CC)cc3C)ccc21 | inconclusive [inhibitor, single point] | 
Cc1cc(C[n+]2cc(Br)ccc2N)c2ncccc2c1 | active: 11.6 µM | 
Oc1cc2cc(-c3csc(-c4ccc(F)cc4)n3)cc3c2n1CCC3 | inconclusive [inhibitor, single point] | 
COC(=O)C1CCN(C(=O)CN(C)Cc2ccc(C(C)(C)C)cc2)CC1 | inconclusive [inhibitor, single point] | 
Cc1ccc(CNC(=O)CCn2cc(-c3ccc(F)cc3)nc2-c2ccncc2)cc1 | inconclusive [inhibitor, single point] | 
CCOC(=O)[C@H]1[C@H]2COc3ccc(Br)cc3[C@@H]2N2C(=O)c3ccc(F)cc3NC(=O)[C@@]12C | inconclusive [inhibitor, single point] | 
Cc1ccc(NC(=O)c2ccccc2N2C(=O)C3C4C=CC(C5CC45)C3C2=O)cc1C (stereo not drawn) | active: 20.6 µM | 
CCCCc1nc2cc(C(=O)N3CCCC(COC)C3)ccc2o1 (stereo not drawn) | inconclusive [inhibitor, single point] | 
COc1cc(-c2nnc(SCCOc3ccc(C)c(Cl)c3)o2)cc(OC)c1OC | inconclusive [inhibitor, full curve, poor fit] | 
CCC(C)NC(=O)Nc1ccc2c(c1)N(C)C(=O)c1ccccc1S2 (stereo not drawn) |  | inconclusive: -4.35% [inhibitor]
COc1cccc(-c2cc(C(=O)NCC3CCCO3)c3cc(C)cc(C)c3n2)c1 (stereo not drawn) | active: 23.1 µM | 
CN1CCN(c2ccccc2NS(=O)(=O)c2ccc3c(c2)CCN3C(=O)C2CCC2)CC1 | active: 14.6 µM | 
CCN(CCCNC(=O)Cn1cc2c(n1)CCCC2)c1cccc(C)c1 | inconclusive [inhibitor, single point] | 
COc1ccc(C2/C=C\CN(C(=O)Nc3ccccc3)CC(=O)N2Cc2ccc(F)cc2)cc1 (stereo not drawn) | inconclusive [inhibitor, single point] | 
Cc1cc(/C=C2/SC(=O)N(CC(=O)N3CCCC3)C2=O)ccc1N1CCOCC1 | inconclusive [inhibitor, single point] | 
C=CCn1c(SCc2nc3ccccc3c(=O)[nH]2)nc2ccccc2c1=O | inconclusive [inhibitor, single point] | 
O=C(CSc1cn[nH]n1)Nc1ccccc1F |  | inactive: -4.51%
COc1ccc(CCNCC(=O)Nc2ccc(C)c(S(=O)(=O)N(C)C)c2)cc1OC | inconclusive [inhibitor, partial curve, poor fit] | 
S=C(NCc1ccncc1)Nc1ccc(Br)cc1Cl | inconclusive [inhibitor, partial curve, poor fit] | 
CCC(C(=O)NCCc1ccc(C)cc1)n1nc(C)c2c(C)n(-c3ccccc3)nc2c1=O (stereo not drawn) | inconclusive [inhibitor, single point] | 
O=C1CSC(c2ccc(F)cc2)N1c1ccccc1F (stereo not drawn) | inconclusive [inhibitor, single point] | 
